# Measured values taken from PubChem BioAssay AID1477 (National Center for Advancing Translational Sciences (NCATS), 2009).
# Hit rate of the full screen: of about 230,000 compounds, fewer than 10 were called active. Inconclusive means that the source gave no clear call. Such entries were picked first, then a sample of the others. The call rests on the fitted dose curve; in most records, active means well fitted curve in the direction sought with a large enough effect; inconclusive means small, poorly fitted or top-dose-only effect, or effect the other way, or another doubt; inactive means no such curve, though single readings can be large or run the other way. No potency is given beside an inconclusive call; the fits are too rough.
# Target: Runt-related transcription factor 1 (Homo sapiens) + Core-binding factor subunit beta (Homo sapiens) (UniProt Q01196+Q13951)
# Assay: qHTS Assay for Compounds Blocking the Interaction Between CBF-beta and RUNX1 for the Treatment of Acute Myeloid Leukemia
# Conditions: AlphaScreen CBFb-His/RUNX1-biotin binding, biochemical; series mostly up to 59.8 µM
# Procedure, shortened: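 AlphaScreen proximity signal reports loss of binding between His-tagged CBF-beta and biotin-labelled RUNX1, each at 30 nM. Proteins are pre-associated for 20 minutes, compounds added for 15 minutes, then beads for 90 minutes, all at ambient temperature.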
# Sequence of UniProt Q01196 (Q01196 whole entry, looked up): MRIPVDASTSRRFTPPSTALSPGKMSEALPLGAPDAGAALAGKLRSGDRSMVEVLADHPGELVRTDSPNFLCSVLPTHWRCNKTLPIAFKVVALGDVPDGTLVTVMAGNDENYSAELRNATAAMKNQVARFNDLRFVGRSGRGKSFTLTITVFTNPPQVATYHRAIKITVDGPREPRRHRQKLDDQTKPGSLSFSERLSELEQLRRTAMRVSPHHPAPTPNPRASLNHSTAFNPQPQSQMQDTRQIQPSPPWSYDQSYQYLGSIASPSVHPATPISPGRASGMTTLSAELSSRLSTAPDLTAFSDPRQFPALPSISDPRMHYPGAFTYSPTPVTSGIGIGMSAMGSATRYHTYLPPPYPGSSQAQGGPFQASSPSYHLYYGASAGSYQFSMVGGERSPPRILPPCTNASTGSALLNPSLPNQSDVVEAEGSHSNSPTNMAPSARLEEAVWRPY
# Sequence of UniProt Q01196 (Q13951 whole entry, looked up): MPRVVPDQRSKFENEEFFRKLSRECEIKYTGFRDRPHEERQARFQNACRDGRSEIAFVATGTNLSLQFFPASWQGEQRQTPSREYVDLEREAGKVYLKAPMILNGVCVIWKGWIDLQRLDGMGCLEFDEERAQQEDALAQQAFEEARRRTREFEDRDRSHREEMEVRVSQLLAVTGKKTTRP
row,SMILES,Potency
1,Cc1ccc(-n2ncc3c(NCc4ccco4)ncnc32)c(C)c1,inactive
2,NNC(=O)c1sc2cc(C(F)(F)F)cnc2c1-c1cccs1,inactive
3,COc1ccccc1/C=C/C=N/n1c(-c2n[nH]c3c2CCC3)n[nH]c1=S,inactive
4,CCOc1c(OC(C)=O)ccc(/C=C/c2ccc3cccc(OC)c3n2)c1[N+](=O)[O-],"inconclusive [inhibitor, single point]"
5,O=C(COc1ccccc1)NCC(=O)N/N=C/c1ccco1,"inconclusive [activator, single point]"
6,CN(C)CCCn1c(SCC(=O)N2CC(=O)Nc3ccccc32)nc2ccccc2c1=O,"inconclusive [activator, single point]"
7,Cc1ccc(-n2nc3c(n2)/C(=N/O)CC/C3=N\O)cc1,inactive
8,COc1cc(CN2CCN(c3cc(C)ccc3C)CC2)ccc1O,inactive
9,CCCCC1=CC2=CC(=O)C(C)(OC(=O)CC)C(=O)C2=CN1Cc1ccc2c(c1)OCO2 (stereo not drawn),"inconclusive [inhibitor, single point]"
10,O=C(Nc1nccs1)c1sc2ccccc2c1Cl,inactive
11,Cc1ccc(S(=O)(=O)CCSc2n[nH]c(=O)n2-c2ccccc2)cc1,inactive
12,Cc1ccc(/C(N)=N/OC(=O)COc2ccccc2Cl)cc1,"inconclusive [activator, partial curve]"
13,O=C(NCc1cccnc1)c1ccc(Cn2c(=S)[nH]c3ccc(Br)cc3c2=O)cc1,inactive
14,COc1ccc(OC)c(NC(=O)Nc2ccccc2C)c1,inactive
15,CC(=O)/C=C/c1ccc(C)o1,"inconclusive [inhibitor, single point]"
16,Cc1cc(C)c2c(NC(=O)CCl)nn(C)c2n1,"inconclusive [activator, single point]"
17,CC(C)CCn1nnnc1C(c1ccccc1)N1CCN(C)CC1 (stereo not drawn),inactive
18,CC(CCc1ccccc1)NC(=O)/C=C/c1ccc(F)cc1 (stereo not drawn),inactive
19,COCCN1C(=O)NC(=O)/C(=C\c2ccc(F)cc2)C1=O,inactive
20,C(=N\Nc1nc2ccccc2[nH]1)/c1ccc2c(c1)OCCO2,"inconclusive [inhibitor, single point]"
21,Nc1nc(SCC(=O)c2cccc([N+](=O)[O-])c2)n[nH]1,"inconclusive [inhibitor, partial curve]"
22,COc1ccc(N=C2C(=O)N3c4c(cccc42)C(C)=CC3(C)C)cc1,"inconclusive [inhibitor, single point]"
23,COc1ccc(-c2ccc(/C=N/NC(=O)Cc3nnc(N)s3)o2)cc1Cl,"inconclusive [inhibitor, single point]"
